Read counts are not given, so values of variants with three or more changes are uncertain.
B1: CPEB3 Ribozyme (parent)
chain: UAACAGGGGGCCACAGCAGAAGCGUUCACGUCGCAGCCCCUGUCAGAUUCUGGUGAAUCUGCGAAUUCUGCUGUAUAUCUC

Variants of: B1
Test: self-cleavage, relative activity (ratio to wild type); higher = more cleavage; in vitro, sequencing
Outline: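 After error-prone PCR and barcoding, CPEB3 ribozyme mutant libraries were transcribed with T7 RNA polymerase at 37°C for 5 hours, then given 15 min with DNase I before an EDTA stop, and they cleaved during both steps. Reverse transcription with template switching preceded Illumina sequencing. Relative activity divides a variant's cleaved/total read fraction by the unmutated ribozyme's. At least 5 reads were required per variant, and three batches were averaged.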

| Variant | self-cleavage |
| --- | --- |
| A5G A13G A56C U76A | 0.19 |
| A5G A18G A28G U48C G52U U67C | 0.37 |
| A5G A15G G46A A47G G61A A65G | 0.05 |
| A5G A13G A18U A57G | 0.19 |
| A5G A18C A77G | 0.23 |
| A5G A15G A18U A64G | 0.18 |
| A5G A15U A35U U41G | 0.6 |
| A5G A15G U25C U51C U67C | 0.21 |
| A5G A13C A20G U41C A64G U72C A77G | 0.1 |
| A5G A13U U48C | 0.5 |
| A5G A15U A20G U26C | 0.51 |
| A5G A15G U41C U54G U66C | 0.2 |
| A5G A15G A47G U51A | 0.54 |
| A5G A13U C23A A57G U69C C79A | 0.06 |
| A5C U51G C62U A64G U78C | 0.17 |
| A5G A15U U26C U41C U80C | 0.68 |
| A5G A15G U26C C29U A56G | 0.42 |
| A5G A13G U25C U31C | 0.14 |
| A5G A15U U26G | 0.51 |
| A5G A13G A21G A47G U80C | 0.67 |
| A5G A13U G24U A45G A56G | 0.26 |

| Variant | self-cleavage |
| --- | --- |
| A5G A13U C32G C37G A56U | 0.23 |
| A5G A13U U51A U58C G63A | 0.22 |
| A5G A13G U54C | 0.66 |
| A5G A13U U41C A45G U49C U72C | 0.11 |
| A5G A15U U78C | 0.37 |
| A5G A15U U25C A57G | 0.08 |
| A5G A18G A21G A45U U66C U69A | 0.04 |
| A5G A15G A64U | 0.43 |
| A5G A13G C14U G33A U41A G52U | 0.06 |
| A5G A13G U41A U43C A45G U69A A77G | 0 |
| A5G A13U C59U A64G A75U | 0.39 |
| A5G A15G U41C A64G U69C U80A | 0.16 |
| A5G A15C A45U U66C U74A | 0.12 |
| A5C U66A U78C | 0.27 |
| A5G A15U A35G C50U C71U | 0.65 |
| A5G A15U G16A G22A A35G U48C A64U | 0.07 |
| A5G A13G A21G U26C A45G A64U U76A | 0 |
| A5G A18G A20G A35G U49A A56U U60C | 0.12 |
| A5G A18G A20U U48C | 0.44 |
| A5C U51A U66C | 0.49 |
| A5G A13G U48C U78C | 0.56 |

| Variant | self-cleavage |
| --- | --- |
| A5G A13U U74C U76A | 1.39 |
| A5G A15U U43C U78C | 0.5 |
| A5G A13U C14U A45U | 0.15 |
| A5G A13G U43C A65G | 0.13 |
| A5G A15C A35U U41C U67C | 0.31 |
| A5G A18C U67C | 0.39 |
| A5G A15U A18U G33A U43A | 0.34 |
| A5G A13G G24A U43A | 0.17 |
| A5G A13G C23U U31G G33A | 0.09 |
| A5G A13U C23U | 0.45 |
| A5G A13G A28U U51A U69G U80C | 0.16 |
| A5G A13U A15U G24A A28C A35G | 0.41 |
| A5G A13G A15C A45U | 0.11 |
| A5G A18C U41A A57G C68A | 0.28 |
| A5G A13U U72C | 0.69 |
| A5G A15G U72C C79G | 1.01 |
| A5G A13G A35U A47U U49A U60C A64G | 0.06 |
| A5G A13G A47G G63U | 0.98 |
| A5G A15G U80C | 0.77 |
| A5G A13G A18U G33A A65G | 0.16 |
| A5G A13U U31C U48A U54G U72C | 0.16 |

| Variant | self-cleavage |
| --- | --- |
| A5G A13G U26C | 0.15 |
| A5G A13G U41A A45G U60C | 0.19 |
| A5G A15C A18U U41C A56U | 0.09 |
| A5G A13G A15U C29G U74C | 0.13 |
| A5G A15U A21G A35U U41A U69A | 0.09 |
| A5C U54C U72C | 1.2 |
| A5G A18G A20U U26C | 0.61 |
| A5G A15G A21G U43C | 0 |
| A5G A13G U43C U72A | 0.54 |
| A5G A15U C44A A75U | 0.24 |
| A5G A13U A20G A28G A35G U48G U76C | 0.12 |
| A5G A13U U41A U49A A56C U72A | 0.09 |
| A5C U48C G53A U66C U67G U72C | 0.15 |
| A5G A15U U41A U69A | 0.07 |
| A5G A15C U26A U41A U51C U60C | 0.13 |
| A5G A15U C38A U48C | 0.32 |
| A5G A15G A21U | 0.59 |
| A5G A15G U26A A45U U60C U67C U72A | 0.05 |
| A5G A13G G33A C50A U78C | 0.35 |
| A5G A13C A15G G55A | 0.26 |
| A5G A13U U25C U26C U51C U58G U76A | 0.06 |
